# Source: the supplement of paper PMC12217912
# Some of the results follow. The full chains were built here from the parent and the listed change. Values near 0.05 are background.
# B1: TEV protease; numbered along this chain (parent)
# chain: MGESLFKGPRDYNPISSSICHLTNESDGHTTSLYGIGFGPFIITNKHLFRRNNGTLVVQSLHGVFKVKDTTTLQQHLVDGRDMIIIRMPKDFPPFPQKLKFREPQREERICLVTTNFQTKSMSSMVSDTSCTFPSGDGIFWKHWIQTKDGQCGSPLVSTRDGFIVGIHSASNFTNTNNYFTSVPKNFMELLTNQEAQQWVSGWRLNADSVLWGGHKVFMVKPEEPFQPVKEATQL
# Variants of: B1
# Experiment: raw area under fraction-flipped curve 0-4 h after induction (AUC4h, not background-subtracted), DNA-recorder readout of cleavage of the substrate (dimensionless); higher = more cleavage of the substrate by the protease variant
# Settings: temperature: 34 °C; time window: 0-4 h after rhamnose induction
# Method: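 In vivo DNA recorder in E. coli TOP10(DE3) ΔrhaA at 34 °C. Each TEVp single-site mutant (parent TEVp 0) is paired with a single-site variant of the 7-mer TEVs (canonical ENLYFQ|S). The substrate sits between flexible linkers in a Bxb1-sfGFP-TEVs-SsrA fusion, so cleavage stabilises Bxb1 and speeds flipping of a recombination array, read by NGS. The value is the raw area under the fraction-flipped curve over 0-4 h after rhamnose induction (AUC4h), with ≥20 reads per time point. It is not background-subtracted; inactive controls average about 0.047.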
# 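Note: Bxb1 expression induced with 0.2% (w/v) L-rhamnose at OD600 near 0.5, cultures sampled hourly, flipped fraction per protease–substrate barcode pair counted by paired-end Illumina sequencing.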
Variant,area with substrate ENLYCQS,area with substrate ENLYEQS,area with substrate ENLYGQS,area with substrate ENLYHQS,area with substrate ENLYIQS,area with substrate ENLYMQS,area with substrate ENLYNQS,area with substrate ENLYQQS,area with substrate ENLYWQS,area with substrate ENLYDQS,area with substrate ENLYPQS,area with substrate ENLYTQS,area with substrate ENLYVQS,area with substrate ENLYYQS,area with substrate ENLYLQS,area with substrate ENLYSQS,area with substrate ENLYKQS,area with substrate ENLYRQS
MGESLFKGPRDYNPISSSICHLTNESDGHTTSLYGIGFGPFIITNKHLFRRNNGTLVVQSLHGVFKVKDTTTLQQHLVDGRDMIIIRMPKDFPYFPQKLKFREPQREERICLVTTNFQTKSMSSMVSDTSCTFPSGDGIFWKHWIQTKDGQCGSPLVSTRDGFIVGIHSASNFTNTNNYFTSVPKNFMELLTNQEAQQWVSGWRLNADSVLWGGHKVFMVKPEEPFQPVKEATQL [P94Y],0.0678,0.0657,0.0649,0.0621,0.124,0.0821,0.0707,0.0583,0.0742,,,,,,,,,
MGESLFKGPRDYNPISSSICHLTNESDGHTTSLYGIGFGPFIITNKHLFRRNNGTLVVQSLHGVFKVKDTTTLQQHLVDGRDMIIIRMPKDFPPFPQKLNFREPQREERICLVTTNFQTKSMSSMVSDTSCTFPSGDGIFWKHWIQTKDGQCGSPLVSTRDGFIVGIHSASNFTNTNNYFTSVPKNFMELLTNQEAQQWVSGWRLNADSVLWGGHKVFMVKPEEPFQPVKEATQL [K100N],0.0659,,0.0661,,0.144,0.087,0.0578,,0.0312,0.0431,0.0753,0.0773,0.12,0.0672,,,,
MGESLFKGPRDYNPISSSICHLTNESDGHTTSLYGIGFGPFIITNKHLFRRNNGTLVVQSLHGVFKVKDTTTLQQHLVDGRDMIIIRMPKDFPPFPQKLWFREPQREERICLVTTNFQTKSMSSMVSDTSCTFPSGDGIFWKHWIQTKDGQCGSPLVSTRDGFIVGIHSASNFTNTNNYFTSVPKNFMELLTNQEAQQWVSGWRLNADSVLWGGHKVFMVKPEEPFQPVKEATQL [K100W],0.0859,0.0684,0.0689,,0.133,0.0855,,,0.0822,,,0.0776,,,0.0965,0.0907,,
MGESLFKGPRDYNPISSSICHLTNESDGHTTSLYGIGFGPFIITNKHLFRRNNGTLVVQSLHGVFKVKDTTTLQQHLVDGRDMIIIRMPKDFPPFPQKLKFREPQREECICLVTTNFQTKSMSSMVSDTSCTFPSGDGIFWKHWIQTKDGQCGSPLVSTRDGFIVGIHSASNFTNTNNYFTSVPKNFMELLTNQEAQQWVSGWRLNADSVLWGGHKVFMVKPEEPFQPVKEATQL [R109C],0.1,0.0738,0.0759,0.0763,0.108,0.0879,0.073,,,0.0862,0.0674,,,0.0428,0.0861,0.0956,0.0614,0.0657
MGESLFKGPRDYNPISSSICHLTNESDGHTTSLYGIGFGPFIITNKHLFRRNNGTLVVQSLHGVFKVKDTTTLQQHLVDGRDMIIIRMPKDFPPFPQKLKFREPQREERICLDTTNFQTKSMSSMVSDTSCTFPSGDGIFWKHWIQTKDGQCGSPLVSTRDGFIVGIHSASNFTNTNNYFTSVPKNFMELLTNQEAQQWVSGWRLNADSVLWGGHKVFMVKPEEPFQPVKEATQL [V113D],0.0617,0.0507,0.0486,0.0524,0.0538,0.0502,0.0559,0.0684,0.054,0.0578,0.0414,0.041,,,,0.0594,0.0476,0.051
MGESLFKGPRDYNPISSSICHLTNESDGHTTSLYGIGFGPFIITNKHLFRRNNGTLVVQSLHGVFKVKDTTTLQQHLVDGRDMIIIRMPKDFPPFPQKLKFREPQREERICLVTTNFGTKSMSSMVSDTSCTFPSGDGIFWKHWIQTKDGQCGSPLVSTRDGFIVGIHSASNFTNTNNYFTSVPKNFMELLTNQEAQQWVSGWRLNADSVLWGGHKVFMVKPEEPFQPVKEATQL [Q118G],0.0941,0.0785,0.0661,0.061,0.121,,0.0778,,,0.0681,0.0732,,0.149,0.0661,0.0908,0.0744,0.0829,0.0699
MGESLFKGPRDYNPISSSICHLTNESDGHTTSLYGIGFGPFIITNKHLFRRNNGTLVVQSLHGVFKVKDTTTLQQHLVDGRDMIIIRMPKDFPPFPQKLKFREPQREERICLVTTNFHTKSMSSMVSDTSCTFPSGDGIFWKHWIQTKDGQCGSPLVSTRDGFIVGIHSASNFTNTNNYFTSVPKNFMELLTNQEAQQWVSGWRLNADSVLWGGHKVFMVKPEEPFQPVKEATQL [Q118H],0.0805,,,,0.127,0.0995,,,,0.0677,0.0706,0.0758,0.0684,0.0627,0.0781,0.0685,0.0419,
MGESLFKGPRDYNPISSSICHLTNESDGHTTSLYGIGFGPFIITNKHLFRRNNGTLVVQSLHGVFKVKDTTTLQQHLVDGRDMIIIRMPKDFPPFPQKLKFREPQREERICLVTTNFQTKAMSSMVSDTSCTFPSGDGIFWKHWIQTKDGQCGSPLVSTRDGFIVGIHSASNFTNTNNYFTSVPKNFMELLTNQEAQQWVSGWRLNADSVLWGGHKVFMVKPEEPFQPVKEATQL [S121A],0.0892,,,0.0676,0.11,0.0675,,,,,0.0654,0.0646,0.113,,,,0.0664,
MGESLFKGPRDYNPISSSICHLTNESDGHTTSLYGIGFGPFIITNKHLFRRNNGTLVVQSLHGVFKVKDTTTLQQHLVDGRDMIIIRMPKDFPPFPQKLKFREPQREERICLVTTNFQTKSMSSMVSDTSCFFPSGDGIFWKHWIQTKDGQCGSPLVSTRDGFIVGIHSASNFTNTNNYFTSVPKNFMELLTNQEAQQWVSGWRLNADSVLWGGHKVFMVKPEEPFQPVKEATQL [T132F],0.0526,0.0575,,,0.0742,,0.0395,0.0591,,0.0575,0.057,0.0573,0.0512,0.048,0.0529,0.0499,0.0495,0.0491
MGESLFKGPRDYNPISSSICHLTNESDGHTTSLYGIGFGPFIITNKHLFRRNNGTLVVQSLHGVFKVKDTTTLQQHLVDGRDMIIIRMPKDFPPFPQKLKFREPQREERICLVTTNFQTKSMSSMVSDTSCYFPSGDGIFWKHWIQTKDGQCGSPLVSTRDGFIVGIHSASNFTNTNNYFTSVPKNFMELLTNQEAQQWVSGWRLNADSVLWGGHKVFMVKPEEPFQPVKEATQL [T132Y],0.0341,0.0434,0.0533,0.0636,0.0608,0.0694,0.0533,,0.0605,0.0608,0.057,,0.0549,,,0.0521,0.0176,
